# In the BET-seq Pho4 binding data (Le et al. 2018):
# Some of the results follow. Values were computed here from the reads of four pooled replicates and scatter widely.
# Target: T1, Pho4 (S. cerevisiae) (UniProt P07270)
# T1 sequence: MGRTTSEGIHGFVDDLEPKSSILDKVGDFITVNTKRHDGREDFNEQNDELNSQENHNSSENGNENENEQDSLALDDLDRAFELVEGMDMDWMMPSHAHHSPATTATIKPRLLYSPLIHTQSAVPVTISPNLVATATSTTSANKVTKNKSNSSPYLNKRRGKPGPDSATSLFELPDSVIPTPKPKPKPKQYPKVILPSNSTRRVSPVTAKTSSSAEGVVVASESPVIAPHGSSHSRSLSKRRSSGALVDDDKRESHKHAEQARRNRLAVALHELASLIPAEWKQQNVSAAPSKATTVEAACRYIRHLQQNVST
# Assay: relative binding free energy (BET-seq); higher = weaker binding
# Settings: reference: library average
row,Sequence,relative binding free energy [kcal/mol]
1,TGGTGCACGTGTAAAC,0.06
2,AGACTCACGTGTTGTT,0.21
3,GGTTCCACGTGGGGCG,0.01
4,CGATGCACGTGCGGTT,0.15
5,GATGCCACGTGCGGGG,-0.2
6,GTCTACACGTGGATGT,0.11
7,TAGGGCACGTGTCAGT,0.02
8,TGGTGCACGTGTGGCT,0.05
9,GATGACACGTGGTTGG,0.01
10,TGGTACACGTGTGTAA,0.02
11,TTTGCCACGTGTATTG,-0.11
12,AGGGGCACGTGGCGGC,-0.18
13,CTGCGCACGTGTGGGC,-0.02
14,TCAATCACGTGGGGGT,0.07
15,TGTGCCACGTGGTGGT,-0.19
16,TTTCGCACGTGACAGT,0.09
17,TGGATCACGTGGATGC,0.12
18,TTGGGCACGTGGAAGC,0.09
19,TGTAGCACGTGGAACT,0.05
20,AGATTCACGTGATGCG,0.29
21,GTTCTCACGTGTGAGG,0.27
22,GGGGGCACGTGAATGA,0.15
23,TTGGTCACGTGAGAGA,0.42
24,GTTATCACGTGATGGC,0.45
25,ATGTACACGTGTGTTA,0.05

row,Sequence,relative binding free energy [kcal/mol]
1,AAAGGCACGTGGTGCG,-0.2
2,ATTTGCACGTGTCGGG,-0.04
3,CGTAGCACGTGGCAGG,-0.16
4,GGTATCACGTGTGTTT,0.21
5,TTTCACACGTGGCATT,0.09
6,GTCGTCACGTGTATAT,0.13
7,TTAGGCACGTGTTACT,-0.16
8,CGAAACACGTGTGGGG,0.04
9,TTTGACACGTGAGTAG,0.02
10,TGAACCACGTGTTTAT,0.15
11,GTATTCACGTGGTGAC,0.24
12,TTTTGCACGTGGCTCT,-0.11
13,ATTTGCACGTGAATTA,0.23
14,CAGTTCACGTGGGGCA,0.03
15,GTAGCCACGTGGGTAA,-0.11
16,TGGAACACGTGTTTAG,-0.02
17,AAGTTCACGTGGTACG,0.22
18,GTCGTCACGTGTGTTA,0.16
19,TTATTCACGTGAGCTT,0.37
20,TTACGCACGTGAGGGG,0.13
21,TGGATCACGTGGTGAG,0.08
22,TATTGCACGTGGCGGC,-0.01
23,ATGTTCACGTGAAGCG,0.26
24,GTAAGCACGTGGGTGA,-0.03
25,GTGCGCACGTGGAGAG,0.03

row,Sequence,relative binding free energy [kcal/mol]
1,AGGTTCACGTGGCGTC,0.19
2,GAAAGCACGTGGGGTA,-0.21
3,ATATTCACGTGCGTGA,0.21
4,GGAGACACGTGTACGG,0.18
5,AATGGCACGTGTATAT,-0.1
6,TGGGTCACGTGCGGCT,0.01
7,AAAGTCACGTGGGGTT,0.07
8,GTGGACACGTGTATTA,0.11
9,GGTTACACGTGTGTCA,0.14
10,TGAGCCACGTGGATGG,-0.22
11,ACGTGCACGTGAATGT,0.11
12,ATGGACACGTGCTAGT,0.08
13,ATGTACACGTGATTTA,0.19
14,AACGGCACGTGAGGTG,0.22
15,AGTGTCACGTGAGAGG,0.18
16,TATTACACGTGTATGA,0.1
17,GAGGCCACGTGAGGGT,0.08
18,AATCGCACGTGGGGGT,-0.24
19,TAAATCACGTGGGGAG,-0.13
20,CTGAGCACGTGGCTGG,-0.18
21,TAGTACACGTGAGTGA,0.25
22,ATAGACACGTGATAGT,0.06
23,TGTATCACGTGTTGTT,0.22
24,AATGGCACGTGGTGGA,-0.1
25,GGTGGCACGTGTTCTT,-0.08

row,Sequence,relative binding free energy [kcal/mol]
1,TTGGTCACGTGTTGAT,0.14
2,CGGTTCACGTGGATGT,0.29
3,TGGAGCACGTGGGATA,-0.01
4,AGGTTCACGTGCGCTG,0.26
5,TACATCACGTGTGGAT,0.24
6,TGGGGCACGTGGCCTG,-0.24
7,ATTGGCACGTGATCGT,-0.08
8,TGGTTCACGTGTCGTA,0.31
9,ATATTCACGTGCATTG,0.22
10,GTATTCACGTGATTTA,0.4
11,TGAGGCACGTGCTGGG,-0.18
12,CGTTTCACGTGGGATG,0.26
13,TTAAGCACGTGGTGGT,-0.25
14,TTTATCACGTGTCATT,0.22
15,CTTAGCACGTGAGTTT,0.15
16,GTATTCACGTGCATGG,0.22
17,CTGGGCACGTGAGGAA,0.06
18,TGTGTCACGTGTGGCG,0.03
19,TTTGCCACGTGTGTGG,-0.04
20,GCGTGCACGTGTAGTT,0.14
21,TATAGCACGTGGAGGA,-0.06
22,ACGGGCACGTGATGTA,-0.09
23,TCTGTCACGTGTATTG,0
24,ATTATCACGTGAAGGA,0.2
25,GTTCTCACGTGGGGAA,0.03

row,Sequence,relative binding free energy [kcal/mol]
1,TGGGGCACGTGTGGTA,-0.08
2,TTGTTCACGTGCCAGT,0.22
3,TTGGGCACGTGACGCG,-0.12
4,ATGAGCACGTGGTGGT,-0.18
5,TCGTTCACGTGTATTT,0.42
6,ATTTTCACGTGGACTA,0.39
7,GGCCACACGTGGGTGG,-0.13
8,ATCTTCACGTGGGGGT,0.05
9,GTAGGCACGTGGGACT,-0.21
10,GGTTTCACGTGATAAT,0.52
11,TATATCACGTGGGGTG,0.02
12,TTTACCACGTGTTATG,0.02
13,AATTACACGTGTTATT,0.15
14,CGGTTCACGTGAGGTC,0.4
15,TGTTCCACGTGGGAGC,0.12
16,TGTGTCACGTGAGCTT,-0.03
17,GTTCGCACGTGTTGCG,0.11
18,TTGATCACGTGAATAT,0.28
19,GCCTGCACGTGTTGGG,0
20,TCAAGCACGTGGTTTG,-0.12
21,AGTTGCACGTGTGTGG,0.04
22,CGGGGCACGTGGAGCT,-0.26
23,GTGAACACGTGAGGTC,0.23
24,TGTCTCACGTGTCATT,0.33
25,TGCGTCACGTGTTTTC,0.21

row,Sequence,relative binding free energy [kcal/mol]
1,TTACTCACGTGAAGGT,0.36
2,CATTTCACGTGGGGGA,-0.1
3,GGTACCACGTGTTTGG,0.05
4,TTTATCACGTGAGTGA,0.16
5,AATGTCACGTGGTGCT,0.05
6,ATGTGCACGTGTCCGT,-0.06
7,GGGGGCACGTGTGATG,-0.03
8,GAATTCACGTGGGCGG,0.12
9,GGGTTCACGTGGAAAT,0.31
10,TATGTCACGTGATAGC,0.2
11,CGTGTCACGTGAGTTT,0.36
12,ATGTGCACGTGAAGCT,0.28
13,ATATACACGTGAGGGA,0.15
14,CAGGTCACGTGGTCGG,0.1
15,GATGTCACGTGGTCTG,0.18
16,TGTTTCACGTGGGTCA,0.2
17,TTTTACACGTGAAACT,0.39
18,TGATGCACGTGTTCTA,0.06
19,GGGGTCACGTGGCGCA,0.01
20,AGGTACACGTGAGGAG,0.21
21,GTCGACACGTGGTGTG,-0.02
